The results in this text go back to the RNAGym collection of RNA variant scans (doi:10.7554/elife.90254).

B1: LINE1-mini (parent)
chain: GGCAGAGCUCAACACAGCGUGGCAAAGUGGCUGUGGCUAGACUGCC

The source gives no read counts; variants with many changes may rest on few reads.

The variants in the series derive from B1. Briefly: self-cleavage, relative activity (ratio to wild type); higher = more cleavage; in vitro, sequencing; the parent is a self-cleaving ribozyme.
Take AGCAGCGCUCAACACAGAGUGGCAAAGUGGCUGUGGCUAGACUGCA: the self-cleavage stood at 0.27.
The same measure for AGCAGAGCUCAACCCUGCGUGGCAAAGUGGCUGUGGCUAGACUGCC: 0.03.
As to AGCCGAGCUAAACACAGCGUGGCAAAGUGGCCGUGGCUAGACUGCC, the self-cleavage turned out to be 0.06.
Turning to AGCCGCGCUCAACACAGCGUGGCAAAGUGGCUGUGGCUAGACUGCC, the self-cleavage is 0.
The value for AGCAGAGCUCAACUCAGCGUGGCAAAGUGGCUGUGGCUAGACUCCC was 0.26; that for AGCUGAGCUCGACAAAGCAUGGCAAACUGUCUGUGGCAAGACUCCC was 0.01.
The value for AGCAGAGCUCUAUACAGCGUGGCAAAGUGGCUGGGGCUAGACUGCC was 0; that for AGCAGAGCUCACCACAGCGUUGCAGAGUGGCUGUGGCUAGACUGAC was 0.01.
With AGCAGAGCUCAUCACAGCGUGACAAAGUGGCUGUGGCUAGACUGCC, the self-cleavage amounted to 1.16.
The value for AGCAGAGCUCAACACCGCUUGGCAAAGUGGCUGUGGCUAGCCUGCC was 0.04; that for AGCCGAGCUCAAUACAGCGUGGCAAAGUGGCUGUGGCUAGACUGCC was 0.1; that for AGCAGAGCUCCGCACAGCAUGGCAAAGCGGCUGUGCCUAGACUGCC was 0.01.
With AGCAGAGCUCAGCAGAGCGUGGCAAAGUUGCUGUGGCUAGACUGCA, the self-cleavage turned out to be 0.03.
The value for AGCAGAGCUCAACACGACGUGGCAAAGUUGCUGUGGUUAGGCUGCU was 0.01; that for AGCAGCUCUCAACACAGCGUGGUAAAGUGGCUGUGGCUAGACGGCC was 0.05.
The value for AGCAGAGCUCAACACAGCGUGGCUAAGUUGAUGUGGCUAGACUGCC was 0.19; that for AGCAGUGCUCAACCCAGCGUGGCAAAGUGGCUUUGGCUAGACUGCC was 0.05; that for AGCAGCGCUCAACACAGCGUGGCAAAGUGGUUGUGGCUAGACUGCC was 0.14.
The same measure for AGCAGAGCUCAACACAGCGUGGCAUAGUGGCUGUGUCUAGACUGCC: 0.07; for AGCGGAGCUCAACACAGCGUGGCAAAGUGGCUGUGGCUAGACUACC: 0.18.
As to AGCAGAGCUCAACCCAGCGUGGCAAAGUGGGUGUGACUAGAUUGCC, the self-cleavage was 0.01.
Take AGCGCAGCUAAACACAGCGUGGCAAAGUGGCUGUGGAUAGACUGCC: the self-cleavage was 0.02.
The same measure for AGCGGAGCUCAACACAGAGUGGCAAAGUGGCUGAGGCUAGACUGCC: 0.03.
The same measure for AGCAGCGGUCGACACAGCGUGGCAAAGUGGCUGUGGCUGGACUGCC: 0.04; for AGCCGAGCUCAACACAGCGUAGCAAAGCGGCUGUGGCUAGACUACC: 0.14.
The same measure for AGCGGAGCUGAACACAGCGUGGCAGAGUGGCUCUGGCUCGGCUGCC: 0.01; for AGCAGAGCUCCACACAGCGUGACAAAGUGGCUGUGGCUCGACUGCC: 0.01; for AGCAGAGCUCACCACAGCGUGGCAAAGCAGCUGUGGGUAGCCUGCC: 0.02.
AGCAGUGCUCAACACAGCGUGGCGAAGUGGCUGUGGCUAGAUUGCC: the self-cleavage amounted to 0.18.
The same measure for AGCGGAGCUCAACAAAGCGCGGCAAAGUGGCUGUGUCUAGACUGCC: 0.17; for AGCAGAGCUCUAGACAGCAUGGCUAAGUGGCUGUGGCUAGACUGCC: 0.01; for AGCUGAGGUCAACACAGCGUGGCAAAGUGGCUGUGGCUAGACUGCC: 0.07.
AGCUGAGAUCAACACAGCGUGGCAAAGUGGCUGUGGCUAGACUGCC: the self-cleavage turned out to be 2.09.
On to AGCAGAGCUCCACACAGCGGGGCAAAGUGGCUGUGGCUAGACUGCC, for which the self-cleavage stood at 0.04.
The value for AGCCGAGCUCAACCCAGCGUGGCUAAGUGGCUGUGGCUAGACUGCC was 0.08; that for AGCGGAGCGCAACACAGCGUGGCAAAGUGGCUGUGGCUAGACUGCC was 1.16.
Regarding AGCCCAGCUCAACACAGCGUGGCAAAGUGGCUGUGGCUAGACUGCC, the self-cleavage came to 0.04.
The value for AGCCGAGCACAACACAGCGAGGCUAAGUGGCUGUGGAUAGACUCCC was 0.03; that for AGCAGUGCUCAACACAGCGUGGAAAAGUGGCUGUGGGUAGACUGCC was 0.06; that for AGCUGAGCUCGACACAGCCUGGCAAAGUGGCUGGGGCUAGACUGCC was 0.05.
The same measure for AGCAGAGCUCGACAUAGGGUGGCAAAGUGGCUUUGGCGAGACUGCC: 0.03.
The value for AGCGGAGCUAAACACAGCGUGGCAAAGUGGCUAUGGCUAGACCGCC was 0.02; that for AGCAGAGCUCAGCACAGCGUGGCAAAGUAGCUGUGGCUAGACUGCC was 0.03.
Take AGCAGAGCUCAACACUGAGUGGCAAAGUGGCUGUUGCUAGACUGCC: the self-cleavage was determined as 0.06.
The value for AGCAGAGCUCAACACAGCGUGGCAACGUGGCUGUGGCUAGAUUGCC was 0.1.
The same measure for AGCAGAGCUCUACACAGCGUGGCAAAGUGGAUGUGGCUAGACUGCC: 0.04.
The value for AGCAGAGCUCUACACAGCGUGGCAAAGUGGGUGUGGCUAGACUGCC was 0.02; that for AGCAGAGCUCAACUCGGCGUGGCAAAUUGGCCGUGGAUAGACUGUC was 0.01.
As to AGCAGAGCUCAACACAGCGUGGCGAUGUGGCUGUGGCUAGAAUGCC, the self-cleavage came to 0.02.
Consider AGCGGAGCUCAACACAGCGUGACAAAGUGGCUGUGGCUAGACUGCC, for which the self-cleavage stood at 0.22.
In the case of AGCAGAGCUCAACACCGCGUGGCAAAGUGUCUGUCGGUAGACUGCC, the self-cleavage was found to be 0.12.
The value for AGCAGAGCUCAACUCAGCGGGGCAAAGUGGCUGUGGCUAGACUGCC was 0.16; that for AGCAGAGCUCAACACAGCGUGGCAACGUGUCUGUGGCUAGACUGCC was 1.56.
The value for AGCAGAGCUCCACACAGCGUGGCAAAGUGGCUGUGGUUAGACUGCC was 0.01; that for AGCUGAGCUGAACACAGCGUGGCAAAGUGGCUGUGGCUGGACUGCC was 0.03; that for AGCAGCGCUCAACACAGCGUAGCAAAGUGGCUGUGGCUCGACUGCC was 0.36.
The value for AGCAGCGCUCAAGACAGCGUGGCAAAGUGGCUGUGGCUAGACUGCC was 0.07; that for AGCCGAGCUCAACACAGCGUGGCAAAGUCGCUGUGGCGAGACUGCC was 0.01; that for AGCAGAGCUCAACACAGCGUGGCCAAGUGGCUGUGGCGAGACUGCC was 0.08.
For AGCAGAGCUCAACACAGCGUGGCCAAGUGGCUGUGGCCAGACUGCC, the self-cleavage was found to be 0.04.
The value for AGCCGAGCUCAACACAGCGUGGCCAAGUGGCUGUGGCUAGACUGCC was 0.09.
The same measure for AGCAGUGCUCAACCCAGCGUGGCAAGGUGGCUGUGGCUAGACUGCC: 0.37; for AGCAGCGCUCAACACAGCGUGCCAAAGUGGCUGUGGCUAGACUACC: 0.4; for AGCAGCGCUCAACACAGCGUAGCGAAGUGGUCGUGGAUAGACUGAC: 0.02.
The same measure for AGCAGAGCUCAACACCGCGUGGCAAAGUGGCUGUCGCUAGCCUGCC: 0.01; for AGCAGAGCUCAUCACAGCGUGGCAAAGUGGCUGCGGCUAGCCUGCC: 0.03.
Turning to AGCAGAGCUCAACACCGCGUGGCAAAGUGGCUGUGGCUAGAUUGUC, the self-cleavage turned out to be 0.05.
The same measure for AGCAGAGCUCAACACAGCGUGGCAUAGAGGCUGUGGCUAGACUGCC: 0.17.
The same measure for AGCAGAGCUCAACCCAGCGUGGCAAAGUGGCUCUGGCUAGACUGCC: 0.02.
For AGCAGAGCUCAACACAGCGUGGCCAAGUGGCUGGGGAUUGACUGCC, the self-cleavage was 0.03.
The value for AGCAGAGCUCAGCCCAGCGUGGCAAAGUGGCUGUGACUAGACUGCC was 0.03; that for AGCAGAGCUCUACAUAGCGUGGCAAAGUGGCUGUGGCAAGACGGCC was 0; that for AGCAGCCCUCAACACAGCGUGGACAAGUGGCUGUGGCUAGACUGCC was 0.14.
The same measure for AGCCGAGCUCAACACAGCGUUGCCAAGAUGCUGUGGCUAGACUGCC: 0.02; for AGCAGAGCUCAACGCACCGUGGCAAAGUUGCUCUGGCUAGACUGCC: 0.03.
The same measure for AGCAGAGCUCAACACAGCGUGGCAACGUGGCUGUGGCUAGGCCGCC: 0.02; for AGCAGGGCUCAACCGAGCGCGGCAAAGUGGUUGUGGCUAGACUGCC: 0.01.
As to AGCGAAGCUCAAAACAGCGUCGCAAAGUGGCUGUGGAUAGACAGCC, the self-cleavage was 0.04.
As to AGCAGAGCUCAGCACAGCGUGGCAAAGUGGUUGUGGCUAGACUGCC, the self-cleavage was determined as 0.05.
The same measure for AGCAGAGCUCAACACAGCGUGGCAGAGUGCCUGUGGCUAGACUGCC: 0.24; for AGCAGGGUUCAACACGGCGUGGCUAAGUGGCUGUGGCUAGACUGAC: 0.03.
The value for AGCAGAGCUCUACACAGCGUGGAAAAGUGGCUGUGGCUAGACUGCC was 0.09; that for AGCAGUGCUCAACACAGCGUAGCAAAGUGGCUGUGGCUAGACUGCC was 0.5.
The same measure for AGCGGAGCUCAACACAGCGUGGCAAAGUGGCUGUGGCAAAACUGCC: 0.06.
As for AGCAGAGCUCAACCCAGCGUGGCAAAGUCGCUGUGGCUAUACUGCC, the self-cleavage is 0.04.
With AGCAGAGCUCAACACAGCGUGGCCAAGUGGCUGUGUCUAGACUGCC, the self-cleavage is 0.04.
The value for AGCAGAGCUCGACGCAGCGUGGCAAAGUGGCUGUGGCGAGAAUGCC was 0.01; that for AGCCGAGCUCUAAACAGCGUGGAAAAGUGGCUGUGUCUAGACUGCC was 0.01; that for AGCCGAGUUUAACACAGCGUGGCAAAGUGGCUGUGGCUCGACUGCU was 0.12.
The value for AGCAGAGCUCAGCCCAGCGUGUCAAAGUGGCUGUGGCUAGGCUGCC was 0.01; that for AGCAGAGCUCGACACAGCGUGUCAAAGUAGCUGUGGCUAGACUGCC was 0.06.
The value for AGCAGAGCUCAGCACAGCGUGGCAAAGUGGCUGUGGCUACACUGCC was 0.09; that for AGCCGAGAUCAACACAGCGUGGCAAAGUGGCUGUGACUAGACUUCC was 0.61; that for AGCAGAGCUCUACGCAGCGUAGCAAAGUAGCUGUGUCUAGACUGCC was 0.01.
For AGCAGAGCUCACCACAGCGUGGCAAAGUGGCUGUGUCUAGACUGUC, the self-cleavage was found to be 0.03.
With AGCAGAGCUCACCACAGCGUGGCAAAGUGUCUGUGGCUAGACUGCC, the self-cleavage was determined as 0.05.
Regarding AGCAGAGCUCAGCACAUCGUGGCAAAGUGGCUGUCGCUAGACUGCC, the self-cleavage was 0.16.
The value for AGCCGAGCUCAACCCAGCGUGGCAAAGUGGCUAUUGCUAGACUGCG was 0.05.
Consider AGCAGAGCUCAACACCGCGUGGCAAAGUGGCUGUGGCUAGACUGUG, for which the self-cleavage was determined as 0.13.
The same measure for AGCCGAGCUCAACACAGCGUGGAAGAGUGGCUGUGGCUAGACUGCC: 0.06; for AGCAGAGCUCUACACAGCGUGGCAAAGUGGCUGUGGCCAGACUGCC: 0.06; for AGCAGUGCUCAACACAGCGUGGCAAGGUGGCUGUGGCUAGACUGCC: 0.4.
The same measure for AGCGGAGCUGAGAACAGCGUGGCAAAGUGGCUGUGGCUAGACUGCC: 0.03; for AGCAGAGCUCAACACGGCGUAGCAUAGUCGCUGUGGCUAGACUGCC: 0.69; for AGCAGAGCUCAACGCAGCGUGGCAAAGUGGGUGUCGCUAGACUACC: 0.05.
The value for AGCAGAGCUCAUCACAGCGUGCCAAAGUGGCUGUGGCUAGACUACC was 0.09; that for AGCAGAGCUCAACACUGCGUGGUGAAGUCGCUGUGGCUAGACUGCG was 0.6.
Turning to AGCAGAGCUCAACACAGCGUGGCAGAGUGGCGGUUGCUAGUCUGCC, the self-cleavage stood at 0.01.
The same measure for AGCAGAGCUCCACACAGCGUGGUAAAAUGGCUGUGGCUAGACUGCC: 0.
The value for AGCAGAGCUCGACACAUCGUGGCAAAGGGGCUGUGGCUAGACUGCC was 0.06; that for AGCAGAGCUCAACACCGCGUGGCAAAGGGGCUGUGGCUAGACUGCC was 0.39; that for AGCAGAGCUCCACUCAGCGUGGCAAAGUGGGUGUGGCUAGACUGCC was 0.04.
